Test results taken from the antibiotic and cytotoxicity screens of Wong et al. (2023).
The list shows a part of the results.

Tests used:
HSkMC = human skeletal muscle cells; assay: cytotoxicity call (relative viability < 0.9); conditions: 10 µM
HepG2 = assay: cytotoxicity call (relative viability < 0.9); conditions: 10 µM
S. aureus RN4220 = assay: growth inhibition call (relative growth <= 0.2); conditions: 50 µM

Row | SMILES | cytotoxicity call (HSkMC) | cytotoxicity call (HepG2) | growth inhibition call (S. aureus RN4220)
1 | C[C@@H](NC(=O)C[C@@H]1CC[C@H](NC(=O)CN2CCOCC2)[C@H](CO)O1)c1ccccc1 | inactive | inactive | inactive
2 | CN1CCN(C(=O)C[C@@H]2CC[C@H]3[C@H](COc4ccc(NC(=O)c5ccc(F)c(F)c5)cc4C(=O)N3C)O2)CC1 | inactive | inactive | inactive
3 | Cc1ccccc1S(=O)(=O)N1C[C@H](O)COC[C@H]2O[C@H](CC(=O)N3CCN(C)CC3)CC[C@@H]21 | inactive | inactive | inactive
4 | Cn1nccc1C(=O)NCCN | inactive | inactive | inactive
5 | C[C@H](CO)N1C[C@H](C)[C@H](CN(C)C(=O)NC2CCCCC2)Oc2ccc(NS(C)(=O)=O)cc2CC1=O | inactive | inactive | inactive
6 | Cc1cc(O)c(-c2ccc([C@@H](C)CN)cc2)c2c1[nH]c(=O)c1sccc12 | inactive | active | inactive
7 | C[C@H](CO)N1C[C@H](C)[C@H](CN(C)C(=O)Nc2cccc3ccccc23)OCCCC[C@H](C)Oc2ccc(NC(=O)Nc3ccccc3)cc2C1=O | inactive | inactive | inactive
8 | C[C@@H]1CN([C@@H](C)CO)C(=O)c2cc(NC(=O)Cn3cnnn3)ccc2O[C@@H]1CN(C)S(=O)(=O)c1ccc(Cl)cc1 | inactive | inactive | inactive
9 | C[C@@H](O)/C=C\c1cc[n+](C)cc1 | inactive | inactive | inactive
10 | Cc1cncc2cccc(S(=O)(=O)NCCCN(C/C=C/c3ccc(Br)cc3)C/C=C/c3ccc(Br)cc3)c12 | inactive | inactive | inactive
11 | C[C@H]1CN([C@@H](C)CO)C(=O)Cc2cc(NC(=O)Cc3ccccc3)ccc2O[C@H]1CN(C)Cc1ccc(Cl)c(Cl)c1 | inactive | active | inactive
12 | NCc1ccc(S(N)(=O)=O)cc1 | inactive | inactive | inactive
13 | Nc1nnc(CO)[nH]1 | inactive | inactive | inactive
14 | C[C@H](CO)N1C[C@H](C)[C@H](CN(C)S(=O)(=O)c2ccccc2)OCCCC[C@H](C)Oc2ccc(NC(=O)Nc3cccc4ccccc34)cc2C1=O | inactive | inactive | inactive
15 | Cc1noc(C)c1NC(=O)N(C)C[C@H]1Oc2c(NC(=O)Nc3ccc(C(F)(F)F)cc3)cccc2C(=O)N([C@@H](C)CO)C[C@@H]1C | inactive | inactive | inactive
16 | C[C@@H]1CCCCO[C@H](CN(C)S(C)(=O)=O)[C@@H](C)CN([C@H](C)CO)C(=O)c2cc(NS(=O)(=O)c3ccc(F)cc3)ccc2O1 | inactive | inactive | inactive
17 | CC(C)NC(=O)N(C)C[C@H]1Oc2cc(C#Cc3ccc(F)cc3)ccc2S(=O)(=O)N([C@@H](C)CO)C[C@H]1C | inactive | inactive | inactive
18 | COc1ccc(S(=O)(=O)N(C)C[C@@H]2Oc3c(NC(=O)c4cc(C)nn4C)cccc3C(=O)N([C@@H](C)CO)C[C@@H]2C)cc1 | inactive | inactive | inactive
19 | COc1ccc(CN(C)C[C@H]2OCCCC[C@H](C)Oc3ccc(NC(=O)Nc4ccc(C(F)(F)F)cc4)cc3C(=O)N([C@H](C)CO)C[C@@H]2C)cc1 | active | active | inactive
20 | COc1ccc(NC(=O)N(C)C[C@@H]2Oc3ncc(C#C[C@@H](C)O)cc3C(=O)N([C@@H](C)CO)C[C@H]2C)cc1 | inactive | inactive | inactive
21 | C[C@@H]1CN([C@@H](C)CO)C(=O)c2cccc(NC(=O)C3CCOCC3)c2O[C@@H]1CN(C)C(=O)Nc1ccc2c(c1)OCO2 | inactive | inactive | inactive
22 | CC1OC(n2cc(F)c(=O)[nH]c2=O)C(O)C1O (centres undefined) | inactive | inactive | inactive
23 | C[C@@H]1CN([C@H](C)CO)C(=O)Cc2cc(NS(=O)(=O)c3ccc(F)cc3)ccc2O[C@H]1CN(C)Cc1ccc(Oc2ccccc2)cc1 | active | active | inactive
24 | Cn1nccc1NC(=O)COCC(=O)O | inactive | inactive | inactive
25 | CNc1ccccc1C(N)=O | inactive | inactive | inactive
26 | COc1ccc(CN(C)C[C@@H]2Oc3ccc(NC(=O)C4CC4)cc3CC(=O)N([C@@H](C)CO)C[C@@H]2C)cc1 | inactive | inactive | inactive
27 | CN(C)C/C=C/C(=O)Nc1ccc(C(=O)Nc2cccc(Nc3ncc(Cl)c(-c4c[nH]c5ccccc45)n3)c2)cc1 | active | active | inactive
28 | C[C@H](CO)N1C[C@H](C)[C@H](CN(C)Cc2ccc(-c3ccccc3)cc2)Oc2ccc(NS(=O)(=O)c3ccc(F)cc3)cc2CC1=O | active | active | inactive
